# Assay results from PubChem BioAssay AID624202 (National Center for Advancing Translational Sciences (NCATS), 2012).
# The whole screen tested about 380,000 compounds, of which about 4,000 (1.1%) were called active. This list was built around the results that the source calls inconclusive (neither active nor inactive); the mix of calls is not that of the screen. Calls come from the whole dose curve; as a rule, active = well fitted activation curve with a large enough effect; inconclusive = small, poorly fitted or top-dose-only effect; inactive = no such curve, though single readings can be large or run the other way. A potency beside an inconclusive call is a rough fit, not a confirmed value.
# Assay: qHTS Assay to Identify Small Molecule Activators of BRCA1 Expression; note: nearly all actives have a fitted effect of over 80% in size
# Settings: MCF7-BRCA1-FFLuc reporter, luminescence, 48 h; activation: at 46.1 µM (top of the series), scaled: vehicle 0%, 10 µM genistein 100% unless noted
# Outline: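 MCF7-BRCA1-FFLuc cells, 2000/well in phenol-red-free MEM, attached 2 h then treated 48 h at 37 C. Luciferase luminescence read 15 min after reagent; normalized to genistein maximum activation (10microM) and DMSO, concentration-response fitted.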
# Potency is the fitted concentration of half-maximal effect; tags give direction and shape of the fitted curve.
Compound,Potency,activation
CC(C)(C)SCCNC(=O)Nc1ccccc1,"inconclusive: 35.5 µM [activator, single point]",
N/C(=N\N=C\c1ccc2c(c1)OCO2)c1nonc1N,"inconclusive: 1.12 µM [activator, full curve, poor fit]",
Cc1nc(NC(=O)c2cccnc2Cl)sc1C,active: 3.16 µM,
Cc1ccc(C(=O)NCCn2ccc3ccccc32)cc1[N+](=O)[O-],"inconclusive: 10 µM [activator, partial curve, poor fit]",
CCOc1ccc(N/C=C/C(=O)c2ccc(OC)cc2)c([N+](=O)[O-])c1,"inconclusive: 1.26 µM [activator, full curve, poor fit]",
COc1ccc(/C=C/C(=O)c2ccc(O)cc2)cc1,"inconclusive: 35.5 µM [activator, single point]",
COc1ccc(C2C(C#N)=C(SCC(=O)Nc3ccc(C)cc3)NC3=C2C(=O)CC(C)(C)C3)cc1 (centres undefined),,inactive: -76.4%
CCC(=O)NCCc1nc2cc(NC(=O)c3ccc(Cl)cc3)ccc2n1C,"inconclusive: 0.631 µM [activator, full curve, poor fit]",
CCOC(=O)c1cnc2ccc(OCC)cc2c1N1CCN(c2ccccc2OC)CC1,,inactive: -80%
CCOc1ccc(CCNC(=O)c2ccc3ccccc3n2)cc1OCC,,inactive: -1.61%
O=C(CCCOc1ccccc1)N1CCc2ccccc2C1,"inconclusive: 10 µM [activator, partial curve, poor fit]",
CCCN(CC(=O)Nc1ccccc1OC)C(=O)CCC(=O)c1ccc(Cl)s1,,inactive: -2.53%
CCCc1[nH][nH]c(=O)c1C(c1ccccc1)C(C#N)C#N (centres undefined),,inactive: -4.99%
CC(=O)c1cnc2c(-c3cccc(Br)c3)cnn2c1C,active: 8.91 µM,
O=C(N/N=C\c1ccc(F)cc1)c1ccc(F)cc1,active: 11.2 µM,
CCOc1ccc(N/C=C/C(=O)c2ccc3ccccc3c2)c([N+](=O)[O-])c1,"inconclusive: 2.51 µM [activator, full curve, poor fit]",
CC(C)C(=O)N1CCCC1(C)C(=O)Nc1ccccc1 (centres undefined),,inactive: -4.77%
CC1=C/C(=N\NC(=S)NCc2ccccc2)CC1,,inactive: 29.8%
O=C(Cn1cc(C(F)(F)F)ccc1=O)NCc1ccc(F)cc1,"inconclusive: 11.2 µM [activator, partial curve, poor fit]",
CC(C)(C)OC(=O)CN1c2cccc3cccc(c23)S1(=O)=O,,inactive: 0.397%
N#C/C(=C\c1ccc(C(=O)O)cc1)c1nc2sc3c(c2c(=O)[nH]1)CCCC3,,inactive: 10.9%
COc1cccc(C(=O)Nc2ccc(C(=O)O)cc2)c1,,inactive: 10.3%
Clc1ccc(-c2csc(N3CCC(c4ccccc4)C3)n2)cc1 (centres undefined),"inconclusive: 8.91 µM [activator, partial curve, poor fit]",
COc1ccccc1Cc1c(-c2ccc(C)cc2)nc2ccc(Cl)cn12,"inconclusive: 35.5 µM [activator, single point]",
Cc1ccc(CONC(=O)c2ccccc2)cc1,active: 2.24 µM,

Compound,Potency,activation
O=C(Nc1ccccc1)Nc1ccc(F)cc1F,"inconclusive: 10 µM [activator, partial curve, poor fit]",
O=C(COc1cccnc1[N+](=O)[O-])Nc1cc(Cl)ccc1Cl,active: 11.2 µM,
O=C(CCc1ccccc1)Nc1ccccc1F,"inconclusive: 35.5 µM [activator, single point]",
O=C1NCCCCC1NC1CC(=O)N(c2ccccc2)C1=O (centres undefined),,inactive: -16.2%
O=C(CSc1nnc(NC(=O)c2ccccc2F)s1)NCC1CCCO1 (centres undefined),active: 12.6 µM,
O=C(CSc1nnc2ccccn12)N1CCc2ccccc21,active: 2.82 µM,
CCSc1nn(CC(=O)Nc2cccc(Cl)c2)c(N)c1S(=O)(=O)c1ccc(OC)cc1,,inactive: -49.8%
O=C(CSc1nnnn1Cc1ccccc1)c1ccc(F)cc1,"inconclusive: 25.1 µM [activator, single point]",
Nc1nonc1-c1noc(CCCN2C(=O)c3ccccc3C2=O)n1,active: 4.47 µM,
O=C(/C=C/c1ccco1)Nc1cccnc1Cl,"inconclusive: 1.58 µM [activator, full curve, poor fit]",
COc1cccc(C(=O)/C=C/Nc2ccc(NC(C)=O)cc2)c1,"inconclusive: 12.6 µM [activator, partial curve, poor fit]",
O=C(/C=C/c1ccc(Cl)cc1)NCc1ccco1,"inconclusive: 14.1 µM [activator, partial curve, poor fit]",
Cc1ccc(OCC(=O)N2CCc3ccccc32)cc1,"inconclusive: 1.12 µM [activator, full curve, poor fit]",
CC(C)(C)OC(=O)N/N=C\c1ccc(OC(=O)c2cccs2)cc1,"inconclusive: 20 µM [activator, partial curve, poor fit]",
Cc1cccc(NC(=O)CSc2nc3ccccc3o2)c1,"inconclusive: 35.5 µM [activator, single point]",
COc1cccc(C2CC(=O)C3=C(C2)Nc2ccccc2N(C(=O)CCC(=O)O)C3c2ccc(F)cc2)c1 (centres undefined),,inactive: 2.23%
CCCC(=O)c1ccc(N2CCCCCC2)c(F)c1,"inconclusive: 11.2 µM [activator, partial curve, poor fit]",
Cc1ccc(-c2cc(C(=O)Nc3cc(C)ccc3O)no2)cc1,active: 1.12 µM,
CC(CC(=O)Nc1ccc(F)cc1)S(=O)(=O)c1cc2c3c(c1)CCN3C(=O)CC2 (centres undefined),,inactive: 1.72%
CCC(C)C(=O)Nc1nc2ccc(OC)cc2s1 (centres undefined),"inconclusive: 3.55 µM [activator, partial curve, poor fit]",
CC(C)C(=O)Nc1cccc(C(=O)OCC(=O)c2ccc(Cl)cc2Cl)c1,,inactive: -1.79%
CCOC(=O)c1c(-c2ccccc2)oc2ccc(OCC(O)CNCCN(C)C)cc12 (centres undefined),,inactive: -82.1%
COc1cccc(-c2cc3nc(-c4ccccc4)cc(=O)n3[nH]2)c1,"inconclusive: 7.08 µM [activator, partial curve, poor fit]",
COc1cccc(-c2cc(C(=O)NC3CCCC3)no2)c1,"inconclusive: 3.16 µM [activator, full curve, poor fit]",
